PMC12136788
This is one part of the list.

B1: chr9:95013113:95013114:-_ENSG00000196305_ENST00000443024|hu_hu|hu_hu_hu_mus_False|28_78 (ssRNA)
RNA: GGGAGUUCUACAGUCCGACGAUCCUCAGUCAGAAAGGGCGUGUAAGGGGCCAUCAGUCUGCAAAGAGAAAGCAGGACACUGAACAGUGUCUCCAGAGCCAUGACACAAUCCUCCAUCCCACUCUCACCCUUUAACCUCCUCCUCAACAGAGGAUUGAGCAUCA
B2: chr2:9570881:9570882:+_ENSG00000119203_ENST00000238112|hu_mus|hu_hu_hu_mus_False|48_58 (ssRNA)
RNA: GGGAGUUCUACAGUCCGACGAUCACUUGUCUUCUGAAGGAACCAGGGCAGGGCUCCACAGUGAUCCAAAUGGAAAUGACUAAUUAAUAGGAGAUCAAUCUCAGCUGGGUCGAUAAGGUCAAUGUAAGGAAGGGCAUCCAUUCCCAACAGAGGAUUGAGCAUCA
B3: chr19:8913615:8913616:-_ENSMUSG00000071658_ENSMUST00000096259|mus_hu|mus_mus_mus_hu_False|1_88 (ssRNA)
RNA: GGGAGUUCUACAGUCCGACGAUCAGGGUACCAAAACCUUCUGCCUGAGAUAGGUGCCCCACCCAGUAGGGAGUUGCAGCUGAAAGUAUCUGAUGCAGAAGCAGUGACUAUACGAAAGGAGGCCCCUGGGGAGGGCCCGAGAUCCAACAGAGGAUUGAGCAUCA
B4: chr4:136884974:136884975:-_ENSMUSG00000006699_ENSMUST00000030417|mus_mus|motif|central (ssRNA)
RNA: GGGAGUUCUACAGUCCGACGAUCCACCCACUUUUCUUUCACAUUUUCAAAUGAGGAUGGAGAGACCACUGAGAAACAUACGGGAAAAACAUCUGUCUGUGGAUAACUUAGCGGUCGUAGUCUGUCAUAAUCCUCUUGCCCUGCCAACAGAGGAUUGAGCAUCA
B5: chr11:50195847:50195848:+_ENSMUSG00000007850_ENSMUST00000123371|mus_mus|FALSE|FALSE (ssRNA)
RNA: GGGAGUUCUACAGUCCGACGAUCCCAGAUUUCUUACAUUUAUUUGUAUAGGCAAUGACCAGAAAAUUCACUCAAAAGACUAUUUAAACUUUAUAGAAAAAAAGAAAAUAAACUCCUCUGAGGCAGAGCCCAGCCUUAGAGGCACAACAGAGGAUUGAGCAUCA
B6: chr10:59467614:59467615:+_ENSMUSG00000044475_ENSMUST00000050516|mus_mus|motif|central (ssRNA)
RNA: GGGAGUUCUACAGUCCGACGAUCAUAGAAAUCCUCGUCUUCUUCAUGUUGGUACUGUUUCUCCUGGAUGGGAUUCUUUCGGUAAUUCCGUCCAUCGAACGUUACAAUCUGUGGGCGUAGAACAUCCAUGACAAAUGACGUUCCCAACAGAGGAUUGAGCAUCA
B7: chr7:150915252:150915253:-_ENSG00000033050_ENST00000287844|hu_hu|motif|central (ssRNA)
RNA: GGGAGUUCUACAGUCCGACGAUCCUUCCCUGCUCCAUUGGGCCCUACCAGAGCCACUCGUGUGUCAAGGUCAAUUCCAAAUUCGGGAUUAUUGUAGAUGCAAGGCCCAUCUUUUGUAUACUUGAAGCUCACAUUUUGCACCAUCAACAGAGGAUUGAGCAUCA
B8: chr10:112362630:112362631:-_ENSMUSG00000074748_ENSMUST00000099276|mus_hu|motif|central (ssRNA)
RNA: GGGAGUUCUACAGUCCGACGAUCAUGGACUACUUAUGCAAAAAUAAAAAUCUCCAAAACAAAGGACAGUGGUGAGCUUCACGGCCCUCCCCCGAUGAUCCCAGCAUGCGAUAAUGCCAGGCAGUGGUCCCUGGGCAUGCGAUGCAACAGAGGAUUGAGCAUCA
B9: chr11:51804959:51804960:-_ENSMUSG00000020390_ENSMUST00000020657|perfect_dup|FALSE|FALSE (ssRNA)
RNA: GGGAGUUCUACAGUCCGACGAUCCAUUUUGGAUAAAAACCUAACGGUUGGUGGUUUAUUUGGAUAUUCUUCAGAAAAUUCUAUUACUAGUUUAAAAGUACCAUCUUCAAAGGGUGUCCCUUCUGGUCCAAAUAUAACUGCAUUCAACAGAGGAUUGAGCAUCA
B10: chr2:166765161:166765162:+_ENSMUSG00000002718_ENSMUST00000002790|mus_mus|motif|central (ssRNA)
RNA: GGGAGUUCUACAGUCCGACGAUCAGACAAGCAUAUUGCUUCAAACAUGUAGUGAUUGAAAUGAGGUUUACUGGGAUUCUUACGGACAGCCAGCAGCUUCUGUGUGAGCUGCGUGAUGAGAGUGGGGAUAUAGGGGAUGAUGGCCAACAGAGGAUUGAGCAUCA
B11: chr8:74858975:74858976:-_ENSG00000154582_ENST00000284811|hu_mus|hu_hu_hu_mus_True|88_108 (ssRNA)
RNA: GGGAGUUCUACAGUCCGACGAUCGACCUUGUACGUAAAAUACAUGCAUACUUUCGAUAGCACAUGUGAGGGGAUCUCUCUAAAAUUGACCUCGUUGGUUUCAUUCUCAGCAAACUGACCUGGACCACUCAACAUAGCCUUUAUCAACAGAGGAUUGAGCAUCA
B12: chr1:225611761:225611762:-_ENSG00000143815_ENST00000272163|hu_mus|hu_hu_hu_mus_True|1_28 (ssRNA)
RNA: GGGAGUUCUACAGUCCGACGAUCCCAGGCCAUCGGCCUCUGACCACUUCACCCUCAACAAACUUCCUACUUGGCAUUUUCUAAAAUUAGUCUGGCCGCGCUCCGGCCGGUGACACGGCCACUCCAGGACAGUCACCCGCACAGCAACAGAGGAUUGAGCAUCA
B13: chr1:163112212:163112213:-_ENSG00000143248_ENST00000313961|hu_hu|hu_hu_hu_mus_False|48_88 (ssRNA)
RNA: GGGAGUUCUACAGUCCGACGAUCUUUUAUUAUCAGUAAGAGUGAGUCACAUAGUACGCAAAGUAUUGGAUACAAUAAUCAGGAAACAAACACAAUUGGUCCAGAAUUUAAAACUUUAUGAGCGAAGUGCUGGCACAGGACUUACAACAGAGGAUUGAGCAUCA
B14: chr4:76721835:76721836:+_ENSG00000138768_ENST00000264904|hu_mus|hu_hu_hu_mus_True|18_88 (ssRNA)
RNA: GGGAGUUCUACAGUCCGACGAUCGUUUGGCUGGGGUUUCUGAGACGUCUGGAAUACUAACUCAUGUUUGCUAAUAAAUCCUAGUUUCUCUAUGAAAUUCUCUUUGCCAAUCCUCUUUCAAUCAGUUUGCUUUAGUUUCUCUUUCAACAGAGGAUUGAGCAUCA
B15: chrX:119742084:119742085:+_ENSG00000232119_ENST00000371317|hu_mus|motif|central (ssRNA)
RNA: GGGAGUUCUACAGUCCGACGAUCAAAAGGAUAUUUAUGAAGUAAUCUUAAAGUUGGAUAAAAAGGCCCUUCUCUUUGUCGGAAAAACAGUAAUUCUCCAUUUACUGUAAGGAUUUCUAUGUGUUCAUGGCAUCGGACAAUUUUCAACAGAGGAUUGAGCAUCA
B16: chr12:53620312:53620313:+_ENSMUSG00000035133_ENSMUST00000110725|mus_mus|FALSE|FALSE (ssRNA)
RNA: GGGAGUUCUACAGUCCGACGAUCAGGUUUAAUAGGUGGAGGCACUUUAUGGUUACGUUCAUGAUCGUGACAAUUUGGAGUGCUAUGAACAGGAUACUCAUUUCCUUCCAAAUCUAACCUGUAUCUGGAACGGUCACUAGGUGUCAACAGAGGAUUGAGCAUCA
B17: chr7:54825262:54825263:-_ENSG00000132432_ENST00000352861|hu_hu|hu_hu_hu_mus_False|1_28 (ssRNA)
RNA: GGGAGUUCUACAGUCCGACGAUCCUGCCGGCUGGGCUCCACAAACUGCAUUACCUGAUCCAUGUUUGUUGGAUGGCGGAUUGAGAGCGUAGAGACACGUAGCUCAGGGAGCUUGCUAGCCCAACGGAACCGGAAGCGGAAUCCCAACAGAGGAUUGAGCAUCA
B18: 9931817_9931937_345_CDS_ENSG00000101558_ENST00000340541|human|control|control (ssRNA)
RNA: GGGAGUUCUACAGUCCGACGAUCUGGGUCAAUAAUUCCACUGUUGGGCCUCACACAGUACCGGCGAGGUGCUGUAGUCUUCACUUUGAAACACACUUUUCUAUCCGAUGGAUUUCGCAAUUUAAGAUUUGUAGUGACUACAUCCAACAGAGGAUUGAGCAUCA
B19: 39667250_39668329_1538_CDS_ENSG00000130669_ENST00000435673|human|control|control (ssRNA)
RNA: GGGAGUUCUACAGUCCGACGAUCCGACCAGAUGUCUACCUCUGGCCCGUAGGGAAGGCGGGAGAUGAGCUCUGGGGCCAUCCAGUAGGGCGUGCCGACCAGCGACUUCCUUCGGGGCACUUCCUUGCUCACCUGGGCGCAGAACAACAGAGGAUUGAGCAUCA
B20: chr2:65331917:65331918:-_ENSG00000138069_ENST00000409751|hu_mus|motif|central (ssRNA)
RNA: GGGAGUUCUACAGUCCGACGAUCGAAAUCCACACCAAUUGUGCUGAUGUAGCUUUCCGUAUACGUAUCAUCUGCAAACCGGAGGAGAAGGCAGGACUUUCCAACCCCAGAAUCGCCAAUCAGAAGUAACUUGAAUAAAUAAUCCAACAGAGGAUUGAGCAUCA
B21: chr18:9315019:9315020:-_ENSMUSG00000024286_ENSMUST00000053917|mus_mus|motif|central (ssRNA)
RNA: GGGAGUUCUACAGUCCGACGAUCCAUACAAUUCUAAACUUUUCCACGCUCACACAGGAGGAGUAUAUGAUAAAGCAAAUGCGGGAAUUUAUCUCAAACAAGGAAAACCUCACAAACCUCGGUCACCGCAACCUAAGAUGGGCACAACAGAGGAUUGAGCAUCA
B22: chr8:141525804:141525805:+_ENSG00000104472_ENST00000220913|hu_mus|FALSE|FALSE (ssRNA)
RNA: GGGAGUUCUACAGUCCGACGAUCCUGUACAAUAAAACUGCAUAGUCCUUUUUUUAGAAAGCGAACAUCAAAGGUAGCACAGUAUGCAUGUAGUCUGUGAGAACAGUGUGUCCACGCGACUACACAGCUGCCAGGGAGCUUCCCCAACAGAGGAUUGAGCAUCA

Each binder was assayed against T1, UNK ZnF1-3 (human, UniProt Q9C0B0 31-174) (assay: nsRBNS (natural sequence RNA bind-n-seq); RBNS binding buffer (assumed for nsRBNS): 25 mM Tris pH 7.5, 150 mM KCl, 3 mM MgCl2, 0.01% Triton X-100, 500 ug/ml BSA, 20 U/ml SUPERase-In, 4 C; UNK is unkempt and MSI1 is Musashi-1; names of the RNAs are library labels; protein concentration not given here; high values mean tight binding).
T1 sequence: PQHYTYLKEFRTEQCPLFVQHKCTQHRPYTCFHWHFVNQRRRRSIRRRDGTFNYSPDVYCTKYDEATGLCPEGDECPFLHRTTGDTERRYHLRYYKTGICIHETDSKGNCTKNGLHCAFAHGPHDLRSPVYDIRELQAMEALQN
Work on B1 yielded a binding signal of 1.24 enrichment R.
Binder B2 has a binding signal of 1.55 enrichment R.
Binder B3 has a binding signal of 1.44 enrichment R.
B4 showed a binding signal of 1.38 enrichment R.
With B5 the binding signal was 2.96 enrichment R.
B6 showed a binding signal of 0.369 enrichment R.
B7 was tested, and the binding signal was 0.887 enrichment R.
B8 was tested, and the binding signal was 1.11 enrichment R.
B9 was tested, and the binding signal was 0.664 enrichment R.
Binder B10 has a binding signal of 1.49 enrichment R.
B11 gave a binding signal of 0.818 enrichment R.
Work on B12 yielded a binding signal of 1.17 enrichment R.
Work on B13 yielded a binding signal of 1.64 enrichment R.
B14 showed a binding signal of 0.381 enrichment R.
Binder B15 has a binding signal of 0.594 enrichment R.
B16 gave a binding signal of 0.679 enrichment R.
B17 was tested, and the binding signal was 1.24 enrichment R.
With B18 the binding signal was 0.411 enrichment R.
B19 showed a binding signal of 0.88 enrichment R.
For B20, the binding signal was 1.35 enrichment R.
With B21 the binding signal was 1.62 enrichment R.
B22 was tested, and the binding signal was 0.613 enrichment R.
